Measurements taken from PubChem BioAssay AID686971 (National Center for Advancing Translational Sciences (NCATS), 2013).
About 7,500 (2.1%) of roughly 360,000 compounds were called active. Inconclusive results, whose numbers are uncertain, are shown with a selection of clear calls. Calls follow the shape of the dose curve; as a rule, active = well fitted cell-killing curve with a large enough effect; inconclusive = small, poorly fitted or top-dose-only effect, or effect the other way, or another doubt; inactive = no such curve, though single readings can be large or run the other way. No potency is given beside an inconclusive call; the fits are too rough.
Potency is read from the fitted curve at half-maximal effect; tags tell the direction and shape of the fitted curve.

Experiment: qHTS for induction of synthetic lethality in tumor cells producing 2HG: qHTS for the HT-1080-IDH1KD cell line;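 as to activity, negative = toxicity: 0% = DMSO wells and -100% = cell-free medium wells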
Settings: HT-1080 IDH1 knockdown viability, ATP luminescence, 48 h; activity, negative = toxicity: at 46.1 µM (top of the series) unless noted
Summary of the method: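 CellTiter-Glo luminescence after 48 h compound exposure at 37 degrees C of IDH1-knockdown HT-1080 cells in 5% FBS RPMI. %Activity scaled between DMSO wells and cell-free media wells, with curves fitted and assigned curve classes.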
For `CCOC(=O)N1CCN(CCC(=O)c2ccc(Br)cc2)CC1`, the Potency was inconclusive [cytotoxic, single point]. With `COc1ccccc1NC(=O)COc1ccc(Br)cc1CNC1CCCC1` the Potency was inconclusive [cytotoxic, single point]. For `Cc1ccc(-n2nnc3c(=O)oc4ccccc4c32)cc1`, the Potency was inconclusive [cytotoxic, single point]. For `CC(C)COc1cccc(C(=O)Nc2ccc(CN3CCOCC3)cc2)c1`, the Potency was inconclusive [cytotoxic, single point]. In the case of `Cc1cc(C)cc(NS(=O)(=O)CCCS(=O)(=O)Nc2cc(C)cc(C)c2)c1`, the Potency is reported as active: 20.6 µM. In the case of `O=C(c1cc(-c2cccs2)on1)N1CCN(c2ccccc2)CC1`, the Potency is reported as inconclusive [cytotoxic, single point]. With `O=C(O)COc1ccc(/C=C/C(=O)c2ccc(C3CCCCC3)cc2)cc1` the Potency was inconclusive [cytotoxic, single point]. With `CCOc1ccc(CN2C(=O)c3ccccc3Sc3ccc(C(=O)NCCCN4CCOCC4)cc32)cc1` the Potency was inconclusive [cytotoxic, single point]. In the case of `Nc1ncnc2c1ncn2[C@@H]1O[C@H](COP(=O)(O)O)[C@@H](O)[C@H]1O`, the Potency is reported as inconclusive [cytotoxic, partial curve]. In the case of `CCN(CC)c1ccc(/C=N/NC(=O)c2cnccn2)c(O)c1`, the Potency is reported as inconclusive [cytotoxic, full curve]. With `Cc1cc(C(=O)CCl)c(C)n1CCc1ccc(Cl)cc1` the Potency was active: 8.2 µM. For `COc1ccccc1C(=O)Nc1ccnn1C1CCN(CCCc2ccccc2)CC1`, the “activity, negative = toxicity” value was inactive: -4.63%. In the case of `C=CCN(CC=C)C(=O)Nc1cc(Cl)ccc1OC`, the “activity, negative = toxicity” value is reported as inactive: -14.4%. In the case of `CCN(Cc1ccccc1)S(=O)(=O)c1ccc(C(=O)N(CCCN(C)C)c2nc3cc4c(cc3s2)OCO4)cc1`, the Potency is reported as inconclusive [cytotoxic, single point]. For `CCCOc1ccc(C(=O)N2CCN(c3ccc(N)cc3Cl)CC2)cc1`, the “activity, negative = toxicity” value was inactive: 11.7%. For `CC(C)Cn1c([N+](=O)[O-])nc2c1c(=O)[nH]c(=O)n2C`, the Potency was active: 16.4 µM. For `CC(Sc1ccccc1F)C(=O)Nc1ccc2c(c1)OCCO2` (stereo not drawn), the “activity, negative = toxicity” value was inactive: 3.76%. In the case of `Cc1cc(O)c(Oc2cc(C)cc(O)c2O)c(O)c1`, the Potency is reported as inconclusive [cytotoxic, full curve, poor fit]. For `CCOC(=O)Cn1c(S(=O)(=O)Cc2cccc(F)c2)nc(-c2ccccc2)c1-c1ccccc1`, the Potency was active: 7.08 µM. For `Cc1nc([N+](=O)[O-])c(Br)n1CC(=O)c1ccccc1`, the Potency was inconclusive [cytotoxic, single point]. For `COc1ccc(C(=O)N2CCN(c3ccc([N+](=O)[O-])c(NCCc4ccc(OC)c(OC)c4)c3)CC2)cc1`, the Potency was inconclusive [cytotoxic, full curve, poor fit]. For `O=C1Nc2ccccc2-n2nnnc2C1N1CCN(c2cccc(C(F)(F)F)n2)CC1` (stereo not drawn), the Potency was inconclusive [cytotoxic, single point]. For `CCOC(=O)Cn1c(S(=O)(=O)Cc2ccc(Cl)cc2)nc(-c2ccccc2)c1-c1ccccc1`, the Potency was inconclusive [cytotoxic, partial curve]. For `CCNC(=O)C1(C)CCN(Cc2ccccc2-c2ccccc2)C1` (stereo not drawn), the “activity, negative = toxicity” value was inactive: 11.5%. For `CN(C(=O)COC(=O)/C=C/c1cccc([N+](=O)[O-])c1)C1CCS(=O)(=O)C1` (stereo not drawn), the Potency was active: 16.4 µM. For `C/C(N)=C(/C#N)C(=O)CSc1nnnn1-c1ccc(C)cc1C`, the Potency was inconclusive [cytotoxic, single point]. With `Cn1cc(C(c2ccccn2)c2cn(C)c3ccccc23)c2ccccc21` the Potency was inconclusive [cytotoxic, single point]. For `CNc1nc(Nc2ccc(C)c(Cl)c2)nc(N)c1[N+](=O)[O-]`, the Potency was inconclusive [cytotoxic, single point]. With `CCCOc1ccc(F)cc1-c1cc(C(=O)Nc2ccc(F)cc2)[nH]n1` the Potency was inconclusive [cytotoxic, single point]. In the case of `COc1cc(NC(=O)c2cccs2)ccc1NC(=O)c1cc2ccccc2o1`, the “activity, negative = toxicity” value is reported as inactive: 10.7%. With `Cc1[nH]c(C)c(S(=O)(=O)N2CCN(c3ccccc3)CC2)c1C(=O)N1CCCCC1` the “activity, negative = toxicity” value was inactive: -13.8%. In the case of `COc1ccc(OC)c(NC(=O)CN(c2ccc(C)cc2)S(=O)(=O)c2c(C)n[nH]c2C)c1`, the Potency is reported as inconclusive [cytotoxic, single point]. In the case of `C=C(C)Cn1c(N2CCC(Cc3ccccc3)CC2)nc2c1c(=O)[nH]c(=O)n2C`, the Potency is reported as inconclusive [cytotoxic, single point]. For `O=C(NCc1cccnc1)C1CCN(c2ccc(S(=O)(=O)N3CCOCC3)cc2Cl)CC1`, the Potency was inconclusive [cytotoxic, single point]. In the case of `Cc1ccccc1C(=O)N/N=C/c1ccccn1`, the Potency is reported as inconclusive [cytotoxic, single point]. For `O=S(=O)(Nc1nc2ccccc2nc1Cl)c1cccc(C(F)(F)F)c1`, the Potency was inconclusive [cytotoxic, partial curve]. With `Cc1cc(C)cc(N(CC(=O)O)S(=O)(=O)c2c(C)noc2C)c1` the “activity, negative = toxicity” value was inactive: 10.5%. In the case of `O=C(Nc1ccc(-c2csc(Nc3cccc(C(F)(F)F)c3)n2)cc1)c1cccc(C(F)(F)F)c1`, the Potency is reported as inconclusive [cytotoxic, single point]. For `C=C1CCC[C@]2(C)C[C@H]3OC(=O)C(CNCC(C)C)[C@H]3CC12` (stereo partly drawn), the Potency was inconclusive [cytotoxic, single point]. In the case of `CCCC(NCC(O)COc1ccc(-c2ccccc2)cc1)c1ccccc1` (stereo not drawn), the Potency is reported as active: 13 µM. For `COc1ccc(C(=O)CC(=O)C(=O)Nc2ccc(Cl)cc2)cc1`, the Potency was inconclusive [cytotoxic, single point]. With `CCOc1ccccc1C(=O)N/N=C/c1coc2ccc(C)cc2c1=O` the Potency was inconclusive [cytotoxic, single point]. For `COc1ccc(C(=O)N/C(=C\c2ccc(-c3cccc([N+](=O)[O-])c3)o2)C(=O)NCCCN2CCOCC2)cc1`, the Potency was inconclusive [cytotoxic, single point].
